Results as given in PubChem BioAssay AID894 (National Center for Advancing Translational Sciences (NCATS), 2007).
The campaign covered roughly 150,000 compounds. About 6,500 (4.3%) were called active. This list was built around the results that the source calls inconclusive (neither active nor inactive); the mix of calls is not that of the screen. Calls come from the whole dose curve; as a rule, active = well fitted inhibition curve with a large enough effect (not every such curve was filed as active); inconclusive = small, poorly fitted or top-dose-only effect, or another doubt; inactive = no such curve, though single readings can be large or run the other way. Potencies of inconclusive entries are left out as doubtful fits.

biological target: 15-hydroxyprostaglandin dehydrogenase [NAD(+)] (Homo sapiens) (UniProt P15428); assay: qHTS Assay for Inhibitors of HPGD (15-Hydroxyprostaglandin Dehydrogenase); details: purified HPGD, NADH fluorescence kinetic, PGE2 substrate; activity change, negative = inhibition: stronger effect = lower value
Procedure, shortened: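 NADH formation kinetics: reaction with 30 uM PGE2 and 1 mM NAD+ (final), 20 nM enzyme, Tris-HCl pH 8 with Tween 20, after 15 min compound preincubation at room temperature. Fluorescence change, last versus first of five reads.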
% is set by controls: 0 for no effect and ±100 for the full control effect; potency is the fitted concentration of half-maximal effect; tags give direction and shape of the fitted curve.

Sequence of UniProt P15428 (P15428 whole entry, looked up): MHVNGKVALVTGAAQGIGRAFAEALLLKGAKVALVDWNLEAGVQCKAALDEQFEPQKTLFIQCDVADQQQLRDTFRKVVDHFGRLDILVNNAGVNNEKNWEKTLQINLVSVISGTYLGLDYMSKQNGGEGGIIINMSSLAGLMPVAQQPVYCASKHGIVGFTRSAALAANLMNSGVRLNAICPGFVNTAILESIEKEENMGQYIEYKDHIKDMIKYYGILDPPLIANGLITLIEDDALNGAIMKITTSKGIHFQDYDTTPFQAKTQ

SMILES | Potency | activity change, negative = inhibition
C=CCc1c(C)nc(-c2ccccc2)nc1N/N=C(\C)c1ccccc1 | inconclusive [inhibitor, single point] | 
O=C(CN1C(=O)NC2(CCc3ccccc32)C1=O)c1ccc2c(c1)OCCO2 (stereo not drawn) |  | inactive: -9.78%
CCN(CC)S(=O)(=O)c1ccc2oc(C(=O)N3CCc4ccccc4C3)c(C)c2c1 | active: 28.2 µM | 
CC(=O)Nc1sc2c(c1C(c1ccc(F)cc1)N1CCOCC1)CCCC2 (stereo not drawn) |  | inactive: -10.9%
O=[N+]([O-])c1ccc(N2CCN(c3ccccc3O)CC2)c(Cl)c1 | inconclusive [inhibitor, partial curve, poor fit] | 
COC(=O)C1=C(C)NC(=O)C1(Nc1nccs1)C(F)(F)F (stereo not drawn) | inconclusive [inhibitor, single point] | 
COCCNC(=O)CSc1nc2nc(C)cc(C)n2n1 | active: 20 µM | 
COc1cccc(NC2=Nc3cccc4cccc2c34)c1 |  | inactive: -27.3%
COc1ccc(C=C(c2ccc(OC)cc2)c2ccc(OC)cc2)cc1 | inconclusive [inhibitor, partial curve] | 
CC1(C(=O)CSc2nc3ccccc3[nH]2)CCC(=O)O1 (stereo not drawn) |  | inactive: -9.85%
CC(=O)N1N=C(c2ccncc2)OC12CCCC2 | inconclusive [inhibitor, partial curve] | 
O=C(Nc1ccc2nc(-c3cccnc3)[nH]c2c1)C12CC3CC(CC(C3)C1)C2 | inconclusive [inhibitor, single point] | 
O=C(COC(=O)c1ccc([N+](=O)[O-])s1)Nc1ncc(C(F)(F)F)cc1Cl |  | inactive: -27%
CC1CCCC(C)N1c1nnc(N)s1 (stereo not drawn) | active: 28.2 µM | 
CC(C)(C)c1ccc(C(=O)Nc2ccc(NC(=O)c3ccco3)cc2)cc1 | inconclusive [inhibitor, single point] | 
COc1ccc(NC(=O)C2CC2)cc1-n1cnnn1 | active: 14.1 µM | 
COc1ccccc1Nc1nc(N)nc(-c2oc3ccccc3c2C)n1 | inconclusive [inhibitor, partial curve] | 
CC(NC(=O)/C(=C/c1cccc([N+](=O)[O-])c1)NC(=O)c1ccco1)C(=O)O (stereo not drawn) |  | inactive: -13.2%
COC(=O)c1sccc1-c1ccc(/C=N/OC(=O)c2ccccc2)o1 | inconclusive [inhibitor, partial curve] | 
CN(C)c1ccc(C2=NOC(CN3C(=O)c4ccccc4S3(=O)=O)C2)cc1 (stereo not drawn) | inconclusive [inhibitor, partial curve] | 
Cc1ccccc1NC1=C(Cl)C(=O)OC1OC(C)C (stereo not drawn) |  | inactive: -0.602%
CCc1cccc(CC)c1NC(=S)NCC(c1cccnc1)N1CCOCC1 (stereo not drawn) |  | inactive: -0.647%
CCC(C)NC(=O)c1ccc(COc2ccccc2Cl)cc1 (stereo not drawn) | active: 20 µM | 
Cc1nc(-c2ccccc2)sc1C(N)=O |  | inactive: 2.02%
COc1ccc2cc(C(C)=O)c(=O)oc2c1 | inconclusive [inhibitor, partial curve] | 

SMILES | Potency | activity change, negative = inhibition
NC(=O)c1c(NC(=O)CSc2nnc(-c3ccco3)n2N)sc2c1CCCC2 | active: 14.1 µM | 
Cc1c(NC(=O)COC(=O)c2cc3c4ccccc4n(C)c3s2)c(=O)n(-c2ccccc2)n1C | inconclusive [inhibitor, single point] | 
Nc1nc(Nc2ccc(Cl)cc2)nc2ccccc12 | inconclusive [inhibitor, partial curve] | 
Cc1cc(/C=C2/NC(=O)NC2=O)c(C)n1-c1sc2c(c1C#N)CCCC2 | active: 17.8 µM | 
Cc1ccc(NC(=O)c2cc(NC(=O)c3ccco3)ccc2N2CCOCC2)cc1 |  | inactive: -13.6%
Cc1cccc(Oc2cc(NC(=O)Cn3cnc([N+](=O)[O-])n3)cc([N+](=O)[O-])c2)c1 | inconclusive [inhibitor, single point] | 
CC(C)NS(=O)(=O)c1ccc(NC(=S)NC(=O)c2cccc([N+](=O)[O-])c2)cc1 | inconclusive [inhibitor, partial curve] | 
Cc1ccc(O)c(CNc2nc3ccccc3n2C)c1 | inconclusive [inhibitor, partial curve] | 
CCCC1CCc2c(sc(NC(=O)c3cccs3)c2C(N)=O)C1 (stereo not drawn) | inconclusive [inhibitor, partial curve] | 
COCCCn1c(SCc2nnc(-c3ccccc3)o2)nc2sc3c(c2c1=O)CCC3 | active: 14.1 µM | 
O=[N+]([O-])c1cccc2c[nH]nc12 | active: 31.6 µM | 
CCOC(=O)c1sc2nc(-c3ccccc3)ccc2c1N | inconclusive [inhibitor, single point] | 
COc1ccc(/C=N/NC(=O)CCOc2ccccc2C)cc1OC | inconclusive [inhibitor, partial curve] | 
CCSc1nc2c(c(=O)[nH]c(=O)n2C)n1C/C=C(/C)Cl | inconclusive [inhibitor, partial curve] | 
O=C(Nc1nc2ccccc2n1CCN1CCCCC1)C1CCCCC1 |  | inactive: -0.855%
O=C(NCc1cccs1)C1CCCCC1 | active: 14.1 µM | 
CCOP(=O)(c1ccccc1)c1nc(-c2ccccc2Cl)oc1N1CCCCC1 (stereo not drawn) | inconclusive [inhibitor, partial curve] | 
COc1cc2c(cc1NC(=O)c1ccc(C)c([N+](=O)[O-])c1)oc1ccccc12 |  | inactive: -3.29%
COc1ccc(CCNS(=O)(=O)c2ccc3c(c2)CCN3C(=O)CCC(=O)O)cc1OC |  | inactive: -0.818%
COc1cc(-c2nc(-c3ccc4c(c3)-c3ccccc3S4(=O)=O)c(-c3ccccc3)[nH]2)cc(OC)c1OC |  | inactive: -28.1%
CC1CCc2c(sc(N)c2C(=O)OC(C)C)C1 (stereo not drawn) | active: 28.2 µM | 
CNCCCCc1cnc(C)c2[nH]c3ccccc3c12 | inconclusive [inhibitor, partial curve] | 
COc1cc(SC)ccc1C(=O)NCC1CCCO1 (stereo not drawn) | inconclusive [inhibitor, partial curve] | 
CCOc1ccc(CNC(=S)N/N=C/c2ccc(OC)c(OC)c2)cc1 | inconclusive [inhibitor, partial curve] | 
COc1ccccc1NS(=O)(=O)/C=C/c1ccccc1 |  | inactive: -6.35%

SMILES | Potency | activity change, negative = inhibition
Cc1nn(Cc2ccccc2Cl)c2sc(C(=O)Nc3nccs3)cc12 | inconclusive [inhibitor, single point] | 
Cc1ccc(S(=O)(=O)N2CCN(CC(=O)N(CC(C)C)c3c(N)n(CC(C)C)c(=O)[nH]c3=O)CC2)c(C)c1 |  | inactive: -7.45%
CC(NC(=O)/C=C/c1ccco1)c1nc2ccccc2n1Cc1cccc(Cl)c1 (stereo not drawn) |  | inactive: 2.02%
COc1ccccc1C1CC(c2c(-c3ccccc3)c3cc(Cl)ccc3[nH]c2=O)=NN1S(C)(=O)=O (stereo not drawn) | inconclusive [inhibitor, full curve] | 
CCc1nc(N2CCN(c3nc(C)cc(C)n3)CC2)c2oc3ccccc3c2n1 | inconclusive [inhibitor, partial curve] | 
Cc1ccc(-n2nc(-c3cccs3)cc2C(=O)NCC2CCCO2)c(C)c1 (stereo not drawn) | active: 1 µM | 
CCC(=O)Nc1c(C#N)c2nc3ccccc3nc2n1-c1ccccc1C | inconclusive [inhibitor, partial curve] | 
CC1Cc2nc(SCC(=O)N3CCCc4ccccc43)n(C)c(=O)c2S1 (stereo not drawn) |  | inactive: -11.5%
Cc1ccc(C(=O)N/C(=C/c2ccc(-c3ccc(Br)cc3)o2)C(=O)NC2CCS(=O)(=O)C2)cc1 (stereo not drawn) | inconclusive [inhibitor, partial curve] | 
COc1ccc(CCC(=O)NCCCNC(=O)CCc2ccc(OC)cc2)cc1 |  | inactive: -8.32%
c1csc(C2Nc3ccccc3-c3nc4ccccc4n32)c1 (stereo not drawn) | inconclusive [inhibitor, partial curve] | 
CC(=O)c1cccc(NC(=O)c2cc3nc(C)cc(C)n3n2)c1 | inconclusive [inhibitor, partial curve] | 
COc1cc2c(cc1OC)C(=O)CC(C)S2 (stereo not drawn) | inconclusive [inhibitor, partial curve] | 
Cc1ccc2cc(C(c3nnnn3C3CCCC3)N(Cc3ccccc3)Cc3ccco3)c(=O)[nH]c2c1 (stereo not drawn) | inconclusive [inhibitor, partial curve] | 
COc1ccc(Br)cc1/C=c1\sc2nc(-c3ccco3)nn2c1=O | active: 14.1 µM | 
O=S(=O)(Nc1ccc2c(c1)nc1n2CCOC1)c1ccc(Cl)cc1 |  | inactive: -1.06%
N#CC1=C(O)CCCn2c1nc1ccccc1c2=O | inconclusive [inhibitor, partial curve] | 
CCOc1c2ccc(C(=O)NCc3ccc(OC(F)(F)F)cc3)cc2nn1CC | inconclusive [inhibitor, partial curve] | 
N#Cc1ccc(NC(=O)c2sc3cc(C(F)(F)F)cnc3c2-c2cccs2)cc1 | inconclusive [inhibitor, single point] | 
COCCNc1oc(-c2ccc(Cl)cc2)nc1C#N | inconclusive [inhibitor, partial curve] | 
Cc1cc(NC(=O)c2cc3nc(C4CC4)cc(C(F)(F)F)n3n2)no1 | inconclusive [inhibitor, single point] | 
CCOC(=O)CSc1nc2cc(OC)ccc2cc1C#N |  | inactive: -18.3%
Cc1ccc(-n2c(C)cc(C(=O)COC(=O)C3=NNC(=O)CC3)c2C)cc1 |  | inactive: -0.282%
